Test results from paper PMC4336329 (PLoS ONE, 2015).
Screen size: about 310,000 compounds; about 14,000 (4.5%) showed an effect of 50% or more. Effects have a minus sign here. Some of the results follow.
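Also: peak tail current of the secondary pulse compared with the same well before compound.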

These compounds were tested against human ether-à-go-go-related gene (hERG) potassium channel (human, UniProt Q12809) (assay: primary screen, population patch clamp on CHO cells stably expressing hERG).
Chain of human ether-à-go-go-related gene (hERG) potassium channel (Q12809 whole entry, looked up): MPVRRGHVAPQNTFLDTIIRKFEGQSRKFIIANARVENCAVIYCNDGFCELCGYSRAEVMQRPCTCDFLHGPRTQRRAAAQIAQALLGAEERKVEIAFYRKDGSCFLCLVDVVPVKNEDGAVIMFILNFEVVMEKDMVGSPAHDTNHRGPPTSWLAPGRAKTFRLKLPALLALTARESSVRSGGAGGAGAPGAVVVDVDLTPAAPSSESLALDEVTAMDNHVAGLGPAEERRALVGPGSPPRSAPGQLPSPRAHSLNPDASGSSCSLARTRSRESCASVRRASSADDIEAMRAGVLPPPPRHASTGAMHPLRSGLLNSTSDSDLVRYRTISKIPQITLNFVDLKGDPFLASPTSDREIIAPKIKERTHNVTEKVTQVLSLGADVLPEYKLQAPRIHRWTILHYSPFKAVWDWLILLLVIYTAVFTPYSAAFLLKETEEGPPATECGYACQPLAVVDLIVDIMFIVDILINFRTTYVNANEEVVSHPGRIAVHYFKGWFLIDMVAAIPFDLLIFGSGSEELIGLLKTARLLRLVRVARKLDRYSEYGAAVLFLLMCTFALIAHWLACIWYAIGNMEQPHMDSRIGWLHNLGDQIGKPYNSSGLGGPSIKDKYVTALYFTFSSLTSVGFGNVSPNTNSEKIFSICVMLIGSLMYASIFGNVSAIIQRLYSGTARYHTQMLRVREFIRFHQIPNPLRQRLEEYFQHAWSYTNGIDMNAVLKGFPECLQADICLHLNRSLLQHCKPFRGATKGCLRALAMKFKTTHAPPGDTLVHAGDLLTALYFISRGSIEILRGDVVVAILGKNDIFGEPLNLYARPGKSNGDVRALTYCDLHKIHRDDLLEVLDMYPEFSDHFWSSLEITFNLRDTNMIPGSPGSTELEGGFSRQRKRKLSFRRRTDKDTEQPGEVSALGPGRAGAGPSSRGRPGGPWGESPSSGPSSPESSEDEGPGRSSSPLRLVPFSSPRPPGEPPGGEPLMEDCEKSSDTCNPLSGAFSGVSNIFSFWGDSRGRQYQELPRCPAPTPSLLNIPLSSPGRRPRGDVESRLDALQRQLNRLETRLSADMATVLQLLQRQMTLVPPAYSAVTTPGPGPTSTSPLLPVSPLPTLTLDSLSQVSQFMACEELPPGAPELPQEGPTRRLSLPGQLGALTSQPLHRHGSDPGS
`O=C(CCCc1ccccc1)N1CCc2ccccc21` was tested, and the “hERG current change (%, negative = inhibition) at 10uM” value was 10.1%. `CCC(C)(C)NC(=O)C(c1cccn1C)N(C(=O)Cn1nnc2ccccc21)c1ccccc1OC` (centres unmarked) was tested, and the “hERG current change (%, negative = inhibition) at 10uM” value was -8.89%. `CN1CCC(NC(=S)Nc2cccc([N+](=O)[O-])c2)CC1` was tested, and the “hERG current change (%, negative = inhibition) at 10uM” value was 6.35%. For `CCOP(=O)(OCC)c1nc(-c2ccc(Br)cc2)oc1N1CCCCC1`, the “hERG current change (%, negative = inhibition) at 10uM” value was -65.3%. In the case of `CC(C)CNC(=O)c1ccc(NC(=O)c2ccccc2[N+](=O)[O-])cc1`, the “hERG current change (%, negative = inhibition) at 10uM” value is reported as 16.9%. `O=C(Nc1ncn[nH]1)c1cc(S(=O)(=O)Nc2ccc(Cl)cc2)ccc1Cl` was tested, and the “hERG current change (%, negative = inhibition) at 10uM” value was 3.7%. In the case of `CN(C(=O)COC(=O)/C=C/c1ccccc1[N+](=O)[O-])c1ccccc1`, the “hERG current change (%, negative = inhibition) at 10uM” value is reported as -33.4%. For `COc1ccc(S(=O)(=O)N(C)CC(=O)NCc2ccccn2)cc1`, the “hERG current change (%, negative = inhibition) at 10uM” value was 17.2%. For `O=C(N/N=C/c1ccc(F)c(F)c1)c1cccc(S(=O)(=O)N2CCCCC2)c1`, the “hERG current change (%, negative = inhibition) at 10uM” value was 10.4%. In the case of `CCOc1ccc(Nc2nc(N)c([N+](=O)[O-])c(N3CCN(CC)CC3)n2)cc1`, the “hERG current change (%, negative = inhibition) at 10uM” value is reported as -62.6%. In the case of `COc1ccc(CC2CCOC2=O)cc1` (centres unmarked), the “hERG current change (%, negative = inhibition) at 10uM” value is reported as 1.62%. With `Cc1cc(-c2cc(C(=O)NCc3ccccc3)on2)nc(S(C)(=O)=O)n1` the “hERG current change (%, negative = inhibition) at 10uM” value was 9.84%. In the case of `CCc1ccc(OCC(=O)NNC(=O)c2cnccn2)c(Br)c1`, the “hERG current change (%, negative = inhibition) at 10uM” value is reported as -5.95%. With `CCOC(=O)c1[nH]c2ccccc2c1NC(=S)Nc1cccc(C)c1C` the “hERG current change (%, negative = inhibition) at 10uM” value was -5.81%. In the case of `Cc1nc2ccccc2nc1OCC(=O)Nc1ccc(F)cc1`, the “hERG current change (%, negative = inhibition) at 10uM” value is reported as 15.8%. `C1=C(c2ccccc2)Nc2nnnn2C1c1cccs1` (centres unmarked) was tested, and the “hERG current change (%, negative = inhibition) at 10uM” value was -8.78%. `C=CS(=O)(=O)c1ccc(Oc2ccc(S(=O)(=O)C=C)cc2)cc1` was tested, and the “hERG current change (%, negative = inhibition) at 10uM” value was -64.3%. With `COc1ccc(OC)c(NC(=O)CNC(=O)c2ccc([N+](=O)[O-])cc2)c1` the “hERG current change (%, negative = inhibition) at 10uM” value was -31.4%. `COc1cccc(OCC(=O)N(C)Cc2nc(-c3cccc(C)c3)no2)c1` was tested, and the “hERG current change (%, negative = inhibition) at 10uM” value was -20.2%. `COc1cc2c(cc1OC)C1=C(C#N)CC/C(=N\S(=O)(=O)c3ccccc3)N1CC2` was tested, and the “hERG current change (%, negative = inhibition) at 10uM” value was -33.1%. In the case of `Cc1ccc(-c2nn(-c3ccccc3)cc2/C=N/n2c(-c3cccs3)n[nH]c2=S)cc1`, the “hERG current change (%, negative = inhibition) at 10uM” value is reported as 9.44%. With `CCCCS(=O)(=O)/C=C/[C@H]1[C@H](S(=O)(=O)CCCC)[C@H]2C=C[C@@H]1C2` the “hERG current change (%, negative = inhibition) at 10uM” value was -13.7%. In the case of `CC(Sc1nnc(-c2cccs2)n1-c1ccccc1)C(=O)NCc1ccco1` (centres unmarked), the “hERG current change (%, negative = inhibition) at 10uM” value is reported as -79.4%. `COc1ccccc1NC(=O)Nc1cnccn1` was tested, and the “hERG current change (%, negative = inhibition) at 10uM” value was -1.51%. In the case of `COc1ccc(NC(=O)CN(C)CC(=O)NCC(=O)Nc2ccc(F)cc2)cc1`, the “hERG current change (%, negative = inhibition) at 10uM” value is reported as -16.6%. For `Cn1c(=S)[nH]c2c(c1=O)C(C)(C)Cc1ccccc1-2`, the “hERG current change (%, negative = inhibition) at 10uM” value was 10.9%. With `CC1CCN(C(=O)c2ccc(S(=O)(=O)N3CCCC3)cc2)CC1` the “hERG current change (%, negative = inhibition) at 10uM” value was -3.13%. With `N#Cc1ccccc1S(=O)(=O)N1CCN(CC(O)c2ccccc2)CC1.O=C(O)C(=O)O` (centres unmarked) the “hERG current change (%, negative = inhibition) at 10uM” value was 8.97%. In the case of `CC(C)Oc1ccc(C(=O)NN2C(=O)NC3(CCCCC3)C2=O)cc1`, the “hERG current change (%, negative = inhibition) at 10uM” value is reported as 1.38%. With `O=C(Nc1cccc([N+](=O)[O-])c1)Nn1cnnc1` the “hERG current change (%, negative = inhibition) at 10uM” value was 10.9%. `COc1ccccc1OCC#CCN1CCCC(C)C1.O=C(O)C(=O)O` (centres unmarked) was tested, and the “hERG current change (%, negative = inhibition) at 10uM” value was 25.9%. In the case of `COc1ccc(-c2cc(C(F)F)n3ncc(C(=O)N4CCSCC4)c3n2)cc1`, the “hERG current change (%, negative = inhibition) at 10uM” value is reported as -43.3%. `CCCN1CCN(CCCNC(=O)c2ccccc2NC(=O)C2=C(C)OCCS2)CC1` was tested, and the “hERG current change (%, negative = inhibition) at 10uM” value was -13.3%. `Oc1ccc(N2CCN(Cc3ccc(OCCCN4CCCCC4)cc3)CC2)cc1` was tested, and the “hERG current change (%, negative = inhibition) at 10uM” value was 5.11%. `Cc1ccc(Cl)cc1N1CCN(S(=O)(=O)c2ccc(-c3ccc(=O)[nH]n3)o2)CC1` was tested, and the “hERG current change (%, negative = inhibition) at 10uM” value was 0.351%. For `CCOc1ccccc1OCCOCCN1CCN(Cc2ccccc2)CC1.O=C(O)C(=O)O`, the “hERG current change (%, negative = inhibition) at 10uM” value was -48.5%. For `O=C(COc1ccc([N+](=O)[O-])cc1)Nc1nc(-c2ccccn2)cs1`, the “hERG current change (%, negative = inhibition) at 10uM” value was -20.4%. For `Cc1ccc2nc(NC(=O)C3CCN(S(=O)(=O)c4cnc[nH]4)CC3)sc2c1`, the “hERG current change (%, negative = inhibition) at 10uM” value was 6.57%. With `Cc1ccc(Oc2ccc(Oc3ccc(C)cc3)nn2)cc1` the “hERG current change (%, negative = inhibition) at 10uM” value was -3.73%. For `O=C(NC1CCS(=O)(=O)C1)Oc1ccc(Cl)cc1` (centres unmarked), the “hERG current change (%, negative = inhibition) at 10uM” value was 1.73%. With `COc1ccccc1-n1cnc2cc(NS(=O)(=O)c3ccc(Br)cc3)ccc21` the “hERG current change (%, negative = inhibition) at 10uM” value was -3.3%. With `COc1ccc(Nc2ncnc3sc(C)cc23)cc1.Cl` the “hERG current change (%, negative = inhibition) at 10uM” value was 2.42%. `Cc1ccc(C(=O)N/C(=C\c2ccco2)C(=O)N2CCSCC2)cc1C` was tested, and the “hERG current change (%, negative = inhibition) at 10uM” value was -28.3%. `CCCC(=O)Nc1cc2c(cc1C(C)=O)OCCO2` was tested, and the “hERG current change (%, negative = inhibition) at 10uM” value was 8.37%.
